Out of some 150,000 compounds screened, about 540 (0.36%) showed an effect of 50% or more. Some of the results follow.

What is called % Inhibition is the change of the read-out against control, counted positive when it falls.

For the experiment, the system named is Plasmodium falciparum. Description: Primary screen in NF54 nanoGlo assay, in single point, at 2uM, 72h; a lower Z score goes with more inhibition. The experiment is classed as functional, Erythrocyte. Conditions: timepoint 72 hour.
In the case of `CC(C)Cc1nc(CN2C(=O)OC[C@@H]2c2ccccc2)no1`, the “% Inhibition” value is reported as -5% and the Z score is 0.88.

For the molecule `CC(=O)Nc1ccc(C(=O)N2CCC[C@](C)(F)C2)nc1`, the “% Inhibition” value is reported as -4% and the Z score came out at 0.59.

For the molecule `O=C1Nc2ccccc2O[C@H]2C[C@@H]1N(Cc1ccc3c(c1)OCO3)C2`, the “% Inhibition” value came out at 13% and the Z score is -1.48.

Turning to `CCOc1ccc(C(=O)N2CCN(c3cc(C)n4cnnc4n3)CC2)cc1`, the “% Inhibition” value is given as -6% and the Z score was 0.81.

Turning to `Cc1csc(C(=O)N2CCC3(CCCN3C)CC2)c1`, the “% Inhibition” value is given as -7% and the Z score stood at 0.91.

In the case of `CN(C)c1noc(-c2ccc3c(c2)CCCCC3=O)n1`, the “% Inhibition” value is -10% and the Z score is 0.82.

Take `CC1CCCC(C)N1C(=O)N(C)Cc1ccccc1N` (configuration not stated): the “% Inhibition” value was determined as 6% and the Z score is reported as -0.62.

Regarding `O=C(Cc1cnn(-c2ccccc2)c1)Nc1ncnc2ccsc12`, the “% Inhibition” value was found to be 4% and the Z score is -0.76.

For `C[C@@H](CCC(=O)O)NC(=O)c1cc(Br)ccc1F`, the “% Inhibition” value is -6% and the Z score came out at 0.58.

For the molecule `CN(CCC1CCOCC1)C(=O)Nc1ccc(F)cn1`, the “% Inhibition” value is reported as -8% and the Z score is 1.13.

With `CC(C)CCNC(=O)Cc1cn(C)c2ncccc12`, the “% Inhibition” value was -9% and the Z score was determined as 1.1.

`Cc1nn(-c2ccc(C#N)cc2)c(NC(=O)NCc2ccccn2)c1C`: the “% Inhibition” value is reported as -7% and the Z score is on record as 1.44.

Consider `O=C(N[C@@H]1CCCOC1)N1CC(F)C1`, for which the “% Inhibition” value is reported as -5% and the Z score is given as 0.69.

In the case of `CS(=O)(=O)NCc1nc(C(F)(F)F)cs1`, the “% Inhibition” value is given as -3% and the Z score is 0.4.

Take `Cc1ccc(NC(=O)N2CC(c3nc(C(C)C)nn3C)C2)cc1`: the “% Inhibition” value was 28% and the Z score is reported as -3.83.

Regarding `COc1ccc(C)cc1S(=O)(=O)N1CC(N2C(=O)C3CC=CCC3C2=O)C1` (configuration not stated), the “% Inhibition” value is -3% and the Z score is listed as 0.47.

In the case of `Cc1cccc(C)c1NCC(=O)Nc1ncc(Cc2ccc(Br)cc2)s1`, the “% Inhibition” value came out at 33% and the Z score was -3.71.

As to `CC(C)c1noc(CCCN=C(N)N2CCOCC2)n1`, the “% Inhibition” value is listed as -14% and the Z score is on record as 1.98.

For the molecule `Fc1ccc(N2CCN(c3ncnc4c3cnn4NCc3ccc(Cl)cc3Cl)CC2)cc1`, the “% Inhibition” value is reported as 26% and the Z score was -2.99.

In the case of `CC1CCC(CCC(=O)NC(C#N)c2c(F)cccc2Cl)O1` (configuration not stated), the “% Inhibition” value is given as -7% and the Z score is listed as 1.03.

With `Cc1nc([C@H](C)NC(=O)C2CC=CC2)cs1`, the “% Inhibition” value is given as -2% and the Z score is given as 0.4.

Consider `CCNc1nc(C(=O)N2CC[C@@H]3CCCC[C@@H]32)cs1`, for which the “% Inhibition” value was -4% and the Z score is 0.6.

For the molecule `COC(=O)C1=C(C(=O)OC)SC(=C2C(=S)C(C)(C)Nc3c(C)cc(C)cc32)S1`, the “% Inhibition” value is listed as -5% and the Z score is 0.57.

In the case of `CCn1cc(CN2CC[C@H](CNC(=O)c3cccc(O)c3)C2)c(C)n1`, the “% Inhibition” value is recorded as -19% and the Z score was 1.9.

On to `CC(C)OCCCNS(=O)(=O)CCNC(=O)c1ccccc1`, for which the “% Inhibition” value is given as -17% and the Z score was 2.15.

As for `CCOC(=O)N[C@@]1(C(F)(F)F)N=C(c2ccccc2)N(Cc2ccncc2)C1=O`, the “% Inhibition” value was 1% and the Z score is on record as -0.14.

Take `Cn1ccnc1[C@@H](O)CNc1nccc(-c2ncnn2C)n1`: the “% Inhibition” value was -10% and the Z score was determined as 1.27.

Turning to `COc1ccc(-c2c(C)c(-c3nnc(C)o3)nn2-c2ccc(C(=O)NC(C(C)C)C(C)C)cc2)cc1`, the “% Inhibition” value came to 5% and the Z score is reported as -0.93.

`O=C(NCC1CCC2(CC1)OCCO2)N1CCCCCC1`: the “% Inhibition” value amounted to 1% and the Z score is -0.14.

On to `NC(=O)C1CCN(C(=O)Nc2nc(C(F)(F)F)cs2)CC1`, for which the “% Inhibition” value came to 36% and the Z score is -4.88.

For `CN1CCCCC[C@H](O)c2cc(C(=O)N3CCN(c4ncccn4)CC3)ccc21`, the “% Inhibition” value is recorded as -2% and the Z score turned out to be 0.19.

With `COc1ccc(-c2noc([C@@H]3CCCN3C(=O)NC3CCCC3)n2)cc1`, the “% Inhibition” value was found to be 0% and the Z score was -0.01.

As to `CC(C)NC(=O)c1ccc(-c2ccc(C(=O)NCCCc3ccco3)cc2)o1`, the “% Inhibition” value is -13% and the Z score is given as 2.04.

`Cc1nccn1CCCN(C)Cc1ccccn1`: the “% Inhibition” value was -11% and the Z score is given as 1.55.

Consider `CCC(=O)N1CCN(c2cc(N3CCCC3)ncn2)CC1`, for which the “% Inhibition” value is on record as -13% and the Z score amounted to 1.43.

Turning to `Cc1n[nH]c(C)c1CNC(=O)c1cn2c(n1)C(=O)N(C)CC2`, the “% Inhibition” value is listed as -10% and the Z score is 1.33.

As to `Cc1nn(C)cc1CNC(=O)C(=O)Nc1cccc2nonc12`, the “% Inhibition” value was -5% and the Z score was determined as 0.89.

`Cc1nnsc1C(=O)N[C@@H](C)Cc1csc2ccccc12`: the “% Inhibition” value came out at 0% and the Z score is -0.03.

On to `Cc1noc2ncnc(N3CCCC3CC(O)c3cnn(C)c3)c12` (configuration not stated), for which the “% Inhibition” value stood at 4% and the Z score is listed as -0.69.

Regarding `Cc1ccc(NCCCNC(=O)CN2CCC[C@H](O)C2)nc1`, the “% Inhibition” value was -2% and the Z score is 0.37.

With `Cc1ccc(C)c(C(=O)N2CC3CC2CO3)c1` (configuration not stated), the “% Inhibition” value is on record as -13% and the Z score stood at 1.5.

Take `Cc1ccc(N[C@H]2CS(=O)(=O)C[C@H]2O)cc1`: the “% Inhibition” value is recorded as 3% and the Z score is -0.4.

On to `C[C@@H](C(=O)N1CCN(c2nncc3ccccc23)CC1)n1cccn1`, for which the “% Inhibition” value is on record as -14% and the Z score turned out to be 1.64.

Turning to `CC(C)c1nccc(C(=O)NC[C@@H](CO)Cc2ccco2)n1`, the “% Inhibition” value was -11% and the Z score is given as 1.42.

On to `CNC(=O)[C@H]1CN(C(=O)c2ccc(C)c(F)c2)CC12CCCC2`, for which the “% Inhibition” value was -1% and the Z score was determined as 0.17.

Take `CC(C)(CNC(=O)NC[C@]1(O)CCOC1)Cc1cccc(Cl)c1`: the “% Inhibition” value is -8% and the Z score turned out to be 1.5.

For the molecule `CC(C)c1nc(C2CCN(C(=O)Nc3ccc(C(C)(C)C)nn3)CC2)no1`, the “% Inhibition” value is given as -6% and the Z score turned out to be 0.48.

As for `CCc1ccc(NC(=O)Cc2c(C)nn(-c3nc(C)cs3)c2O)cc1`, the “% Inhibition” value is -14% and the Z score was 1.73.

Regarding `CCOC1CC(NS(=O)(=O)c2ccc(CN(C)C)cc2)C12CCCO2` (configuration not stated), the “% Inhibition” value is -6% and the Z score amounted to 1.04.

Consider `O=C1c2ccccc2C(=O)N1CCCn1cc(Cl)cn1`, for which the “% Inhibition” value is recorded as -17% and the Z score turned out to be 1.7.

With `C[C@H]1CNC(=O)N1c1cccc(NC(=O)Cc2c(F)cccc2F)c1`, the “% Inhibition” value is given as -14% and the Z score turned out to be 1.46.

Consider `CC(Cn1cncn1)NC(=O)NC(CO)Cc1c[nH]c2ccccc12` (configuration not stated), for which the “% Inhibition” value worked out at 2% and the Z score is reported as -0.27.

As for `O=C(NC(=O)c1nn(-c2ccccc2)c(-c2ccccc2)c1C(=O)c1ccccc1)Nc1ccccc1`, the “% Inhibition” value is on record as -20% and the Z score amounted to 2.33.

With `O=C(CCc1cc(Cl)cs1)NC1(CF)CCOCC1`, the “% Inhibition” value is on record as -5% and the Z score is 0.83.

For `CN(c1nc(-c2cccnc2)nc2ccccc12)C1CCCCC1`, the “% Inhibition” value turned out to be 12% and the Z score is -1.45.

As to `CC(C)(C)c1noc(C2(NC(=O)[C@H]3CCC(=O)N3)CCCCC2)n1`, the “% Inhibition” value is given as -8% and the Z score was found to be 1.14.

These data come from ChEMBL document CHEMBL4888484, “Replenishing the malaria drug discovery pipeline: Screening and hit evaluation of the MMV Hit Generation Library 1 (HGL1) against asexual blood stage Plasmodium falciparum ,using a nano luciferase reporter read-out” (2022).
